Results on 15 sequences are retold here after the supplement of paper PMC7826260.

Common to all, as to experiment: uncleaved DNA left, log2 of reads against the no-enzyme library (log2 ratio); higher = less cleavage (more negative = more Rep cleavage of the k-mer); sequences stand for … in CTCGTCCG…ACCGGAGA
For test [1], the system named is T1, Rep nickase domain of Muscovy duck circovirus.
T1 sequence (protein, residues 1-111, tag omitted): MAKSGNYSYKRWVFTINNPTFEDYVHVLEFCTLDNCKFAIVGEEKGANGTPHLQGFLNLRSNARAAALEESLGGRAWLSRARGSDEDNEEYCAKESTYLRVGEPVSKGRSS
On the procedure: (§1)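 A pool of 90-nt single-stranded DNAs with seven random bases just before the constant AC of the nick site (name = the seven bases) was cut by 3 µM recombinant His6-SUMO-tagged Rep nickase domain (300 nM DNA, 50 mM HEPES pH 8.0, 50 mM NaCl, 1 mM MnCl2, 1 h, 37 °C, three replicates). Uncut DNA was amplified and sequenced.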

Test [2] concerns T2, Rep nickase domain of banana bunchy top virus.
T2 sequence (protein, residues 1-94, tag omitted): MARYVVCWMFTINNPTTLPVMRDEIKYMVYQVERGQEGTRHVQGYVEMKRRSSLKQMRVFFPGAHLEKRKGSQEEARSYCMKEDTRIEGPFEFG
The protocol: as §1
In test [3] the test system is T3, Rep nickase domain of cabbage leaf curl virus.
T3 sequence (protein, residues 1-116, tag omitted): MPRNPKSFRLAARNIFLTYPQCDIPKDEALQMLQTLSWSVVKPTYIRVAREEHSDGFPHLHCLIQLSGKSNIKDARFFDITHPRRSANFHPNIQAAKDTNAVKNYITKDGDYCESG
The protocol:
as §1

The subject of test [4] is T4, Rep nickase domain of chickpea chlorotic dwarf virus.
T4 sequence (protein, residues 1-124, tag omitted): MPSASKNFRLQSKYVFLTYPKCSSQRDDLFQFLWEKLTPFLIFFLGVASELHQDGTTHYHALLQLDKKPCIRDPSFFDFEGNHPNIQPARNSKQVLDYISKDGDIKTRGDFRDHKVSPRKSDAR
On the procedure: as §1
Test [5] concerns T5, Rep nickase domain of faba bean necrotic yellows virus.
T5 sequence (protein, residues 1-98, tag omitted): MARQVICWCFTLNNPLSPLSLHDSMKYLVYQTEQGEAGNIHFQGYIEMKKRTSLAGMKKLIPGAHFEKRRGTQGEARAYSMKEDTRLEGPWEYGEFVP
The protocol: as §1
The subject of test [6] is T6, Rep nickase domain of maize striate mosaic virus.
T6 sequence (protein, residues 1-117, tag omitted): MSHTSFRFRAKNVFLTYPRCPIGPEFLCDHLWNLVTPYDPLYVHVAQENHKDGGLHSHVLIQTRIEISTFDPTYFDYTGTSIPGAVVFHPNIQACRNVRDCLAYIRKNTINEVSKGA
The protocol:
as §1

Test [7] deals with T7, Rep nickase domain of porcine circovirus 2.
T7 sequence (protein, residues 2-116, tag omitted): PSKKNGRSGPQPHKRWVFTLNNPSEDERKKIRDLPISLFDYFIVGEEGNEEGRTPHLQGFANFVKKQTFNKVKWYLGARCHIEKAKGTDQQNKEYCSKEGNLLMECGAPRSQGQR
The protocol:
as §1

Test [8] deals with T8, Rep nickase domain of tomato golden mosaic virus.
T8 sequence (protein, residues 1-124, tag omitted): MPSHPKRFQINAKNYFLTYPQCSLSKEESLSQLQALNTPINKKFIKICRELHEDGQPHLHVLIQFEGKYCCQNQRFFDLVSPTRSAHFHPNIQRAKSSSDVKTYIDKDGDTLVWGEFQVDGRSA
On the procedure: as §1
Test [9] deals with T9, Rep nickase domain of tomato yellow leaf curl virus.
T9 sequence (protein, residues 1-136, tag omitted): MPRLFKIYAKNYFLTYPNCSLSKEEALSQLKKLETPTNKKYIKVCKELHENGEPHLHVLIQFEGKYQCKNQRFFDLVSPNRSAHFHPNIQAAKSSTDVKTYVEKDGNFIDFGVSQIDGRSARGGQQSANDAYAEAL
On the procedure: as §1
Test [10] concerns T10, Rep nickase domain of wheat dwarf virus.
T10 sequence (protein, residues 1-137, tag omitted): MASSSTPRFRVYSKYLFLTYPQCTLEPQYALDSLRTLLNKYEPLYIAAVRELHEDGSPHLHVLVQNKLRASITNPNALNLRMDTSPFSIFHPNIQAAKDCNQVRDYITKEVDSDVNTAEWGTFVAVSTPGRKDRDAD
On the procedure: as §1

The list shows a part of the results. Cleavage of a single-stranded DNA pool by Rep nickase domains was read by sequencing (1 h at 37 °C, 3 µM enzyme); the outer parts of the 90-letter strands are left off. The score is log2 (uncut reads / reads without enzyme); more negative means more cut, near 0 not cut, and no call is made. The scaling is to total reads; uncut strands gain when others are lost, and binding without cutting may add a little.

As to GCGCAAG, the “uncleaved DNA left (log2)” value was 0.0461 in [1]; 0.157 in test [2]; -0.14 in test [3]; 0.26 in test [4]; 0.143 in [5]; -0.485 in test [6]. The “uncleaved DNA left (log2)” value in test [7] was found to be 0.124; in test [8], 0.226; in test [9] it was 0.197; in [10] it was 0.0667.

As for GGGATCC, the “uncleaved DNA left (log2)” value turned out to be 0.112 in test [1]; 0.0667 in test [2]; 0.826 in [3]; 1.93 in test [4]; 0.0757 in [5]; 2.14 in [6]. Also, the “uncleaved DNA left (log2)” value in test [7] came to 0.351; in test [8] it was 0.0512; in test [9], 0.134; in test [10], 0.221.

Regarding AACGCCG, the “uncleaved DNA left (log2)” value in [1] is -0.0377; in test [2], 0.078; in test [3] it was -0.647; in test [4], -0.313; in [5], 0.0933; in [6], -0.85. The “uncleaved DNA left (log2)” value in test [7] is 0.181; in test [8], -0.0146; in test [9] it was 0.0224; in test [10], -0.0411.

For the sequence TCGGTGG, the “uncleaved DNA left (log2)” value in test [1] was 0.115; in test [2], -0.00167; in [3], 0.187; in test [4], 0.273; in test [5], -0.091; in [6], 0.112. Also, the “uncleaved DNA left (log2)” value in test [7] is 0.104; in test [8], 0.0527; in test [9], -0.246; in test [10] it was -0.0175.

As to GCCCTTA, the “uncleaved DNA left (log2)” value in [1] was 0.152; in test [2], 0.00526; in [3], 0.547; in test [4] it was 0.389; in test [5] it was 0.0672; in [6], 0.921. In addition, the “uncleaved DNA left (log2)” value amounted to 0.218 in test [7], 0.23 in test [8], 0.21 in test [9] and 0.169 in test [10].

Regarding GACTAAC, the “uncleaved DNA left (log2)” value was -0.0501 in test [1]; -0.0279 in test [2]; -0.016 in test [3]; 0.0643 in test [4]; 0.0256 in test [5]; 0.46 in test [6]. Besides, the “uncleaved DNA left (log2)” value is -0.142 in test [7], 0.00479 in test [8], -0.000877 in test [9] and 0.0932 in test [10].

Regarding TAACTCG, the “uncleaved DNA left (log2)” value in [1] is -0.112; in test [2], -0.129; in test [3], -0.986; in test [4], -1.53; in [5], -0.0166; in test [6] it was -1.35. Moreover, the “uncleaved DNA left (log2)” value is -0.004 in [7], -0.124 in test [8], -0.135 in test [9] and -0.166 in test [10].

Turning to CTAAGCA, the “uncleaved DNA left (log2)” value in [1] is 0.039; in [2], 0.000261; in test [3], -0.472; in test [4], -1.54; in [5], 0.0207; in test [6], -1.22. Further, the “uncleaved DNA left (log2)” value was -0.0929 in test [7], 0.059 in test [8], 0.117 in [9] and -0.0606 in test [10].

Consider TCGTACA, for which the “uncleaved DNA left (log2)” value in test [1] was -0.177; in test [2], -0.0483; in [3], -0.13; in test [4], -1.79; in test [5], 0.0627; in [6] it was -0.348. The “uncleaved DNA left (log2)” value in [7] was -0.584; in test [8], -0.139; in test [9], -0.0802; in [10] it was -0.135.

For the sequence GAGTACC, the “uncleaved DNA left (log2)” value in [1] is 0.107; in test [2], 0.154; in test [3] it was 0.417; in test [4] it was 0.489; in test [5], -0.0328; in test [6], 1.28. For the same sequence, the “uncleaved DNA left (log2)” value in test [7] is -2.04; in [8], 0.0885; in test [9] it was 0.0683; in test [10] it was 0.21.

Consider CGGTACC, for which the “uncleaved DNA left (log2)” value in test [1] is 0.0112; in test [2] it was 0.0206; in test [3], 0.291; in test [4] it was 0.422; in test [5], 0.0477; in [6], 0.819. Moreover, the “uncleaved DNA left (log2)” value was -0.231 in test [7], -0.0329 in test [8], 0.105 in test [9] and 0.098 in test [10].

For ACGATCG, the “uncleaved DNA left (log2)” value in test [1] is -0.15; in test [2] it was -0.0896; in test [3], -0.788; in [4], -0.235; in test [5], -0.0796; in test [6], -1.02. Besides, the “uncleaved DNA left (log2)” value in [7] was 0.0437; in [8], -0.0319; in test [9], -0.0457; in [10], -0.066.

In the case of TGAAACG, the “uncleaved DNA left (log2)” value in test [1] was -0.0343; in test [2], -0.021; in test [3] it was -0.425; in [4], -0.684; in [5], -0.0864; in [6] it was -1.11. The “uncleaved DNA left (log2)” value was 0.097 in [7], 0.0459 in [8], -0.107 in test [9] and -0.0569 in [10].

Turning to CGTGGTT, the “uncleaved DNA left (log2)” value in [1] was 0.0485; in [2], 0.0345; in test [3], 0.148; in test [4], -0.561; in test [5] it was -0.0571; in [6], 0.513. Moreover, the “uncleaved DNA left (log2)” value was -0.31 in test [7], 0.0809 in test [8], 0.0748 in [9] and 0.0567 in test [10].

On to ATCATAC, for which the “uncleaved DNA left (log2)” value in test [1] was 0.117; in test [2], 0.0251; in [3], -0.109; in test [4] it was -0.85; in test [5], 0.0569; in test [6], -0.988. The “uncleaved DNA left (log2)” value in test [7] was 0.114; in test [8], 0.00348; in [9], -0.0757; in [10], 0.0861.
